Data from a collection of fitness landscapes (doi:10.1016/j.celrep.2020.107928).
In all, about 81,000 sequences were measured (“one-hybrid fitness for binding parS DNA”: median about -0.17, highest 2% from about 0.51 on). The list shows a part of the results.

B1: Caulobacter ParB omega fusion; a variant is named by its letters at X, in order, B8GW30 (parent)
chain: MESVVVGEPGMSEGRRGLGRGLSALLGEVDAAPAQAPGEQLGGSREAPIEILQRNPDQPRRTFREEDLEDLSNSIREKGVLQPILVRPSPDTAGEYQIVAGERAWRAAQRAGLKTVPIMVRELDDLAVLEIGIIENVQRADLNVLEEALSYKVLMEKFERTQENIAQTIGKSXSHVANXMRLLXLPDEVQSYLVSGELTAXHARAIAAAADPVALAKQIIEGGLSVRETEALARKAPNLSAGKSKGGRPPRVKDTDTQALESDLSSVLGLDVSIDHRGSTGTLTITYATLEQLDDLCNRLTRGI

Variants of: B1
Assay: one-hybrid fitness for binding parS DNA (scaled: cognate 1, non-cognate 0); higher = stronger binding
Settings: with parS DNA site
How it was run: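 Pre- and post-selection plasmids were Illumina-sequenced, three replicate libraries were pooled, and any variant with under 10 reads was removed. The libraries were Caulobacter ParB with four specificity codons randomised, selected in E. coli USO through a HIS3 reporter whose site is 19 bp from the promoter. Cells grew 48 hours at 37°C on M9 without histidine, with 0.1 mM IPTG and 5 mM 3-AT. Fitness is the log change in variant-to-wild-type read ratio, rescaled against cognate and non-cognate.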

Row | Variant | one-hybrid fitness for binding parS DNA
1 | SQVD | ≤ 0.2
2 | VHRS | ≤ 0.2
3 | MKMR | ≤ 0.2
4 | QNPG | ≤ 0.2
5 | QMQA | ≤ 0.2
6 | WLNW | ≤ 0.2
7 | KFKW | ≤ 0.2
8 | RNLP | ≤ 0.2
9 | GFTC | ≤ 0.2
10 | RGWV | ≤ 0.2
11 | VQYT | ≤ 0.2
12 | QCLN | ≤ 0.2
13 | AQTN | ≤ 0.2
14 | CEAT | ≤ 0.2
15 | RLGA | 0.617
16 | IKGS | ≤ 0.2
17 | PGPM | ≤ 0.2
18 | HFSC | ≤ 0.2
19 | TRMH | ≤ 0.2
20 | ASYN | ≤ 0.2
21 | TFGS | ≤ 0.2
22 | QQTM | ≤ 0.2
23 | NDSI | ≤ 0.2
24 | THSC | ≤ 0.2
25 | SFYM | 0.36

Row | Variant | one-hybrid fitness for binding parS DNA
26 | HTRC | ≤ 0.2
27 | TFMT | ≤ 0.2
28 | CNNR | ≤ 0.2
29 | LEDL | ≤ 0.2
30 | SMYN | ≤ 0.2
31 | LMAL | ≤ 0.2
32 | WIVA | ≤ 0.2
33 | LVDS | ≤ 0.2
34 | VYDD | ≤ 0.2
35 | VCNG | ≤ 0.2
36 | KRYS | ≤ 0.2
37 | RCFM | 0.377
38 | VAHV | ≤ 0.2
39 | SGTF | ≤ 0.2
40 | RLAG | 1.01
41 | FDES | ≤ 0.2
42 | QHDH | ≤ 0.2
43 | LIDE | ≤ 0.2
44 | CRMR | ≤ 0.2
45 | NSMC | ≤ 0.2
46 | WTST | ≤ 0.2
47 | CTLV | ≤ 0.2
48 | FVDS | ≤ 0.2
49 | WAMN | ≤ 0.2
50 | RIHE | ≤ 0.2

Row | Variant | one-hybrid fitness for binding parS DNA
51 | LVSL | ≤ 0.2
52 | LAAW | ≤ 0.2
53 | SGPK | ≤ 0.2
54 | ERFG | ≤ 0.2
55 | WTGW | ≤ 0.2
56 | HMYR | ≤ 0.2
57 | RKKF | 0.238
58 | HCEM | ≤ 0.2
59 | TPQY | ≤ 0.2
60 | HDNC | ≤ 0.2
61 | KMKS | ≤ 0.2
62 | TWEG | ≤ 0.2
63 | VATL | ≤ 0.2
64 | ATNT | ≤ 0.2
65 | LRNG | ≤ 0.2
66 | SHYG | ≤ 0.2
67 | HKSK | ≤ 0.2
68 | GNMC | ≤ 0.2
69 | PRCP | ≤ 0.2
70 | CNRT | ≤ 0.2
71 | LTPK | ≤ 0.2
72 | STSN | ≤ 0.2
73 | SEGG | ≤ 0.2
74 | RMTN | 0.45
75 | LSAR | ≤ 0.2

Row | Variant | one-hybrid fitness for binding parS DNA
76 | TIIC | ≤ 0.2
77 | DLVS | ≤ 0.2
78 | STKC | ≤ 0.2
79 | HWAS | ≤ 0.2
80 | NCAS | ≤ 0.2
81 | RHCG | 0.95
82 | SQSM | ≤ 0.2
83 | WVIG | ≤ 0.2
84 | TGSP | ≤ 0.2
85 | YSNT | ≤ 0.2
86 | ASYA | ≤ 0.2
87 | HIWD | ≤ 0.2
88 | TSFL | ≤ 0.2
89 | HVSC | ≤ 0.2
90 | YGNC | ≤ 0.2
91 | VEYL | ≤ 0.2
92 | LHLR | ≤ 0.2
93 | RAKM | 0.448
94 | HYTY | ≤ 0.2
95 | GIKL | ≤ 0.2
96 | VPFC | ≤ 0.2
97 | EPKK | ≤ 0.2
